The source of these data is PubChem BioAssay AID1240 (Sanford-Burnham Center for Chemical Genomics, 2008).

About 800 (1.6%) of roughly 50,000 compounds showed an effect of 50% or more. Some of the results follow.

This experiment has as its target Bcl-2-like protein 10 (Homo sapiens) (UniProt Q9HD36). The experiment is described as follows: Phenotype converters, Bcl-B/TR3 peptide binding displacement, primary biochemical FP (AID 1240).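 Note: 0% = Bcl-B with tracer peptide and DMSO and 100% = tracer peptide lacking Bcl-B.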 The following applies: GST-Bcl-B / FITC-TR3 peptide fluorescence polarization; stronger effect = higher value; compound at 3.75 mg/L.
Sequence of UniProt Q9HD36 (Q9HD36 whole entry, looked up): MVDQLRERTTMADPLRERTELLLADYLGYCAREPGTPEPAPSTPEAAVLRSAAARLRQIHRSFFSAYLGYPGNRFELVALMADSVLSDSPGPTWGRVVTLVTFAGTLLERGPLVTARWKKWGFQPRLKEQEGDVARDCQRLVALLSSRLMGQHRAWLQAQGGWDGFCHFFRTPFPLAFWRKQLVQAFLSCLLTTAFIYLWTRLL
Consider `NC(=O)C1CCN(C2CC(=O)N(Cc3ccc(Cl)cc3)C2=O)CC1` (stereo unspecified), for which the displacement was -6.6%. The same measure for `COc1cc(C=C2C(=O)NC(=O)NC2=O)ccc1OCc1c(C)no[n+]1[O-]`: -3.9%; for `Cc1ccc([N+](=O)[O-])cc1N1C(=O)C2C(C1=O)C1C=CC2C12CC2` (stereo unspecified): 1.9%. The same measure for `O=P(Cc1cccc[n+]1[O-])(c1ccccc1)c1ccccc1`: 16.2%; for `Cc1nn(C)c(C)c1NC(=O)c1ccc([N+](=O)[O-])cc1`: 5.1%. The result for `COC(=O)c1c(-c2cccc3ccccc23)csc1N` reads -6.8%.

As for `CCOc1cc(C2/C(=C(\O)c3ccc(C)cc3)C(=O)C(=O)N2c2nncs2)ccc1O` (stereo unspecified), the displacement was determined as 8.3%. With `Cc1ccnc(NC(=O)c2ccc(OCC(C)C)cc2)c1`, the displacement is -8.5%. The result for `CC(C)(C)c1cc(-c2ccccc2)n[nH]1` reads 12.9%; that for `Cc1ccccc1NC(=O)C1CC(=O)N(c2ccccc2)C1` (stereo unspecified), 6.2%.

In the case of `O=C(CSc1nc2ccccc2s1)Nc1nc2ccccc2s1`, the displacement worked out at 7.4%. Regarding `CCOC(=O)c1sc(NC(=O)C2CCCC2)c(C(=O)OCC)c1C`, the displacement is -10.4%.

For the compound `CCOc1ccc(/C=C2\SC(=S)N(NC(=O)c3ccccc3)C2=O)cc1`, the displacement amounted to 12%. The same measure for `CCOC(=O)c1c(N2C(=O)C3CC=C(Cl)CC3C2=O)sc2c1CCCC2` (stereo unspecified): -14.9%; for `COc1ccc(-c2noc(-c3ccc(C)c([N+](=O)[O-])c3)n2)cc1`: -0.4%; for `C=C1c2cc(OC)ccc2NC(=O)N1CC`: 4%.

With `CC(C)CC(=O)NC(NC(=S)Nc1cccc(Cl)c1)C(Cl)(Cl)Cl` (stereo unspecified), the displacement worked out at 0.7%.

Regarding `O=C(NCc1ccccn1)C(=O)Nc1ccc(Cl)c(C(F)(F)F)c1`, the displacement was -14.1%.

`CSc1ccc(S(=O)(=O)N(CC(=O)Nc2cccc(C(C)=O)c2)c2ccc(C)cc2)cc1`: the displacement turned out to be 13.1%. The same measure for `COc1ccc(/C=N/N=C2/NC(=O)C(CC(=O)O)S2)cc1OC` (stereo unspecified): -2.1%; for `Cc1cc(OCCCCN2CCCC2)ccc1Cl`: -10.1%; for `CC(=O)c1cccc(NC(=O)CN(c2cccc([N+](=O)[O-])c2)S(=O)(=O)c2ccccc2)c1`: 0%. For `C/C(=N\Nc1nc(C)cc(C)n1)c1cccs1`, the displacement is -1.2%. The same measure for `COc1ccccc1-c1c(C(F)(F)F)oc2c(CN3CC(C)OC(C)C3)c(O)ccc2c1=O` (stereo unspecified): -5.8%; for `O=C1NC(=O)N(c2ccccc2)C(=O)/C1=C\c1ccc(Cl)cc1`: 1.4%; for `O=C1c2ccccc2NC(c2ccc(F)cc2)N1c1ccc(Cl)cc1` (stereo unspecified): 14.4%.

Turning to `CCOc1cc(/C=N\N2CCN(c3ccccc3)CC2)ccc1O`, the displacement stood at 5.4%. The result for `CC1=NN(c2ccc(S(N)(=O)=O)cc2)C(=O)/C1=C\c1ccc(-c2ccc(Cl)c([N+](=O)[O-])c2)o1` reads 11.2%; that for `CCCOc1cccc(C(=O)Nc2sc(CC)cc2C(=O)OCC)c1`, -16.7%; that for `C=CCNC(=O)CN(c1cc(OC)ccc1OC)S(C)(=O)=O`, 2.8%. The same measure for `COc1ccc(OC(C)C(=O)Nc2ccc([N+](=O)[O-])cc2OC)cc1` (stereo unspecified): 13.2%.

For the compound `Oc1cccc(C=NC2CCCCC2)c1`, the displacement is -8.5%. Turning to `CCSc1nnc(N2C(=O)c3ccc(Oc4ccc([N+](=O)[O-])cc4)cc3C2=O)s1`, the displacement is -5.8%. For the compound `CC(=O)COc1ccc2c(C)cc(=O)oc2c1I`, the displacement is 48.6%. Turning to `CCOC(=O)C1=C(CC)NC2=C(C(=O)CCC2)C1c1ccc(Cl)c(Cl)c1` (stereo unspecified), the displacement is 0.7%. Turning to `O=C(O)COc1ccc2c(=O)c(Oc3ccccc3Br)coc2c1`, the displacement amounted to 9.5%. As to `Cc1ccc(OCCCN2CCCC2)c(C(C)(C)C)c1`, the displacement amounted to 7.3%. The result for `O=[N+]([O-])c1ccc(/C=N/NS(=O)(=O)c2ccccc2)cc1` reads 9.6%; that for `O=C(CCNc1ccc(Cl)cc1)c1cccs1`, 5.2%. The same measure for `CCCCN(CC)Cc1c(O)ccc2c(-c3ccccc3)cc(=O)oc12`: 5.1%. The same measure for `COc1ccc(NC(=O)C2CN(S(=O)(=O)c3ccccc3)CCN2S(=O)(=O)c2ccccc2)c(OC)c1` (stereo unspecified): -32.7%; for `Cc1ccccc1NC(=O)C(=O)NCc1ccncc1`: 11.4%. In the case of `CCOC(=O)c1c(C)oc2ccc(OCc3ccc(F)cc3)cc12`, the displacement is 9.9%.

As to `O=C(Nc1ccc(Cl)cc1)C1C2CCC3C(CCC21)C3(Cl)Cl` (stereo unspecified), the displacement was -3.3%.

Take `O=C(NC(=S)Nc1ccc(Br)cc1)c1ccco1`: the displacement is 13.1%. As for `O=c1c2ccccc2nc(SCCc2ccccc2)n1Cc1ccccc1`, the displacement is -7.8%. The same measure for `Cn1c(=O)c2c(nc(Oc3ccccc3)n2C)n(C)c1=O`: 10.6%; for `COc1cccc(CN2CCN(C3CCN(Cc4ccccc4)CC3)CC2)c1OC`: -18.2%; for `COc1ccc(NC(=O)COc2ccc(Cl)cc2)cc1`: 17.7%. Regarding `COCCNC(=O)c1cc2n(n1)C(C(F)(F)F)CC(c1ccc(F)cc1)N2` (stereo unspecified), the displacement was 2.2%. As to `O=C(CN1C(=O)/C(=C/c2ccccc2)SC1=S)NNC(=O)c1ccccc1Br`, the displacement is -9%. For `O=C(O)CN1C(=O)/C(=C\c2cccc(Cl)c2)SC1=S`, the displacement worked out at 21.4%. The result for `Cc1ccc(-n2nc3cc(C)c(NC(=O)c4ccccc4)cc3n2)cc1` reads -4.4%; that for `O=C(Nc1ccc(-c2nc3ccccc3o2)c(O)c1)c1cc(I)ccc1Cl`, 5%. The result for `CC(NS(=O)(=O)c1ccc(Cl)cc1)c1ccccc1` (stereo unspecified) reads 11.4%; that for `C=CCOc1ccc2c(C)cc(=O)oc2c1I`, 4.5%.

With `Cc1ccc(OCC(=O)N/N=C\C=N/NC(=O)COc2ccc(C)cc2)cc1`, the displacement was -1.6%.

With `COc1nc(N2C(C)CCCC2C)nc(N2C(C)CCCC2C)n1` (stereo unspecified), the displacement is -9.8%.

`O=C(Nc1nccs1)C1CC1(c1ccccc1)c1ccccc1` (stereo unspecified): the displacement is -4.2%.

Consider `O=C1CC(c2ccc3c(c2)OCO3)CC2=C1C(c1ccc(C(F)(F)F)cc1)Nc1ccccc1N2` (stereo unspecified), for which the displacement was -3.1%. On to `O=C(/C=C/c1ccccc1Cl)Nc1ccc(S(=O)(=O)N2CCOCC2)cc1`, for which the displacement was 0.8%.

As to `Cc1ccc(N2C(=O)CC(NCCc3ccccc3F)C2=O)cc1` (stereo unspecified), the displacement is 0.7%. The result for `COc1cc(NC(=O)/C=C/c2ccc(OC)c(OC)c2)c(OC)cc1Cl` reads 4.5%. For `COC(=O)CN1C(C)=Nc2ccc(Br)cc2C1c1ccccc1Cl` (stereo unspecified), the displacement is -10%. The same measure for `Cc1ccc(S(=O)(=O)Oc2ccc(Nc3ccccc3)cc2)cc1`: -4%; for `Nc1nnc(SCC(=O)NC(c2ccccc2)c2ccccc2)s1`: -0.3%.

On to `Cc1ccc(C)c(S(=O)(=O)NC(=O)C(C)O)c1` (stereo unspecified), for which the displacement is 0.6%. The result for `COc1ccc(N(CC(=O)Nc2cccc(Cl)c2)S(C)(=O)=O)cc1` reads 4.4%; that for `Cc1ccc2nc(-c3ccccc3C)oc(=O)c2c1`, -10.9%; that for `O=C(Nc1ccc(N2CCCCC2)cc1)c1cccs1`, 2.3%. The same measure for `COC(=O)c1ccccc1NC(=O)COc1ccc(Br)cc1`: 20.7%.
